Where “and” joins values, the source holds several entries; their conditions need not be identical. Equal values may be shown once. Read-outs that look alike come from different tables or passages of the source.
Experiments:
[1] = system: erythrocytes of a mouse (Balb/c); assay: Erythrocyte hemolytic activity; conditions: 1 hour at 37° C.
Method: To compare the cytotoxicity among the peptides that are produced by the method of Example 1, erythrocyte hemolytic activity of the synthesized peptide was measured.
After that, the amount of hemoglobin contained in a supernatant collected by centrifuge at 1,000×g was determined by measuring the absorbance at a wavelength of 414 nm. As a control to be used as a reference for cell disruption level, the supernatant collected by a treatment with 1% Triton X-100 (Sigma, USA) and a reaction for 1 hour at 37° C. was used to measure the absorbance. By setting the resulting absorbance value at 100% of the erythrocyte hemolytic activity, hemolysis of each peptide was calculated using the following equation 1. Erythrocyte disrupting ability (%)=(Absorbance A−Absorbance B)/(Absorbance C−Absorbance B)×100 Equation 1 (in the above equation, Absorbance A indicates the absorbance of a reaction solution treated with each peptide, in which the absorbance is measured at a wavelength of 414 nm; Absorbance B indicates the absorbance of a reaction solution treated with PBS, in which the absorbance is measured at a wavelength of 414 nm; and Absorbance C indicates the absorbance of a reaction solution treated with 1% Triton X-100, in which the absorbance is measured at a wavelength of 414 nm).

[2] = Cytotoxicity in normal cell line (MTT); conditions: human, HaCaT keratinocyte cells
Method: To determine the cytotoxicity of the peptides produced by the method of Example 1 in normal cell line, cytotoxicity was measured by using human keratinocyte cell line (HaCaT cell line, Dr. N E. Fusenig, Heidelberg, Germany).
Specifically, HaCaT cells, which have been cultured in DMEM medium containing 10% FBS (fetal bovine serum), were aliquoted in a microtiter plate to have 2×10^5 cells per well. […] Twenty-four hours later, a reaction solution containing 0.5 mg/ml MTT (thiazolyl blue tetrazolium bromide) dissolved in phosphate buffered saline (PBS) was added in an amount of 100 μl to each well and the reaction was allowed to occur for 4 hours. After that, the supernatant was discarded, and, by dissolving MTT crystals that are formed by adding 200 μl DMSO (dimethyl sulfoxide), the absorbance at 560 nm was measured to determine the cell survival ability.

Escherichia coli [3] = assay: Flow cytometry, propidium iodide, effect on bacteria membrane; type: cell-based; conditions: peptide at MIC; for Membrane disrupting ability compared with Pseudin-2: flow cytometry
Method: (§1) After that, the supernatant was removed by centrifuge (10,000 rpm) and stained with propidium iodide (PI, concentration of 10 μg/ml) for 30 minutes at 4° C. Thereafter, unbound propidium iodide was removed by centrifuge, and the problem of cell aggregation phenomenon was solved by adding physiological saline (PBS) in an amount of 1 ml.

Staphylococcus aureus [4] = assay: as above; type: cell-based; conditions: peptide at MIC; for Membrane disrupting ability compared with Pseudin-2: flow cytometry
Method: as §1

plasmid DNA (pRSETB) = assay: Binding between antimicrobial peptide and DNA (agarose gel electrophoresis); conditions: plasmid DNA 300 ng, peptide/DNA ratio 0.25:1 to 4:1, 10 minutes at 37° C.
Method: Specifically, plasmid DNA (pRSETB, 300 ng) and the peptide were reacted for at different ratio (i.e., peptide/DNA ratio was 0 (DNA only), 0.25:1, 0.5:1, 1:1, 1.5:1, 2:1, 3:1, or 4:1) for 10 minutes at 37° C. After that, electrophoresis was carried out using 1% agarose gel followed by staining with ethidium bromide (EtBr) and UV determination.

Escherichia coli [5] = assay: Scanning electron microscopy (SEM), membrane damage; type: cell-based; conditions: peptide at MIC, 1 hour at 37° C.
Method: (§2) As a control, cells applied with no peptide were used. After the culture, the cells were collected, and, by using 2.5% glutaraldehyde, the bacterial cells were treated for 18 hour at 4° C. After carrying out washing two times with PBS buffer solution, the fixed cells were dehydrated in stepwise manner by using 100% ethanol and diluted ethanol (50%, 70%, 90% and 100%). After the dehydration followed by drying, the specimen was coated with platinum and determination was made by low vacuum scanning electron microscopy.

Staphylococcus aureus [6] = assay: as above; type: cell-based; conditions: peptide at MIC, 1 hour at 37° C.
Method: as §2

[7] = system: Pseudomonas aeruginosa 4891
[8] = system: interleukin-1 beta (IL-1β) mRNA; conditions: skin lesion infected with P. aeruginosa 4891, treated with peptide, relative to β-actin
[9] = system: interleukin-6 (IL-6) mRNA; conditions: skin lesion infected with P. aeruginosa 4891, treated with peptide, relative to β-actin
[10] = system: tumor necrosis factor-alpha (TNF-α) mRNA; conditions: skin lesion infected with P. aeruginosa 4891, treated with peptide, relative to β-actin

Row | SMILES | Erythrocyte disrupting ability ([1]; peptide concentration 3.13 μM) [%] | Erythrocyte disrupting ability ([1]; peptide concentration 6.25 μM) [%] | Erythrocyte disrupting ability ([1]; peptide concentration 12.5 μM) [%] | Erythrocyte disrupting ability ([1]; peptide concentration 25 μM) [%] | Erythrocyte disrupting ability ([1]; peptide concentration 50 μM) [%] | Erythrocyte disrupting ability ([1]; peptide concentration 100 μM) | viability at 24 h, 3.13 µM [2] [%] | viability at 24 h, 6.25 µM [2] [%] | viability at 24 h, 12.5 µM [2] [%] | viability at 24 h, 25 µM [2] [%] | viability at 24 h, 50 µM [2] [%] | viability at 24 h, 100 µM [2] [%] | Membrane disrupting ability compared with Pseudin-2 (Escherichia coli [3]) | Membrane disrupting ability compared with Pseudin-2 (Staphylococcus aureus [4]) | Binding to DNA (plasmid DNA (pRSETB)) | other results
1 | CC[C@H](C)[C@H](NC(=O)[C@H](C)NC(=O)[C@H](CCC(=O)O)NC(=O)[C@H](Cc1c[nH]cn1)NC(=O)[C@@H](NC(=O)[C@H](CCCCN)NC(=O)[C@H](CCC(N)=O)NC(=O)[C@H](Cc1ccccc1)NC(=O)[C@@H](NC(=O)[C@H](CCCCN)NC(=O)[C@H](CCCCN)NC(=O)[C@H](CC(C)C)NC(=O)[C@H](C)NC(=O)[C@H](CC(N)=O)NC(=O)[C@H](CC(C)C)NC(=O)CN)C(C)C)[C@@H](C)CC)C(=O)N[C@@H](CCCCN)C(=O)N[C@@H](CC(C)C)C(=O)N[C@H](C(=O)N[C@@H](CC(N)=O)C(=O)N[C@@H](CC(N)=O)C(=O)N[C@@H](Cc1c[nH]cn1)C(=O)N[C@H](C(=O)N[C@@H](CCC(N)=O)C(N)=O)C(C)C)[C@@H](C)CC [Pse-11G-K] | 17.3 | 49.4 | 69.8 | 84.0 | 97.8 | 100% and 99.2% | 100 | 100 | 100 | 73.8 | 50.2 | 36.4 | – | – | – | –
2 | CC[C@H](C)[C@H](NC(=O)[C@H](C)NC(=O)[C@H](CCC(=O)O)NC(=O)[C@H](Cc1c[nH]cn1)NC(=O)[C@@H](NC(=O)[C@H](CCCCN)NC(=O)[C@H](CCC(N)=O)NC(=O)[C@H](Cc1ccccc1)NC(=O)[C@@H](NC(=O)[C@H](CCCCN)NC(=O)[C@H](CCCCN)NC(=O)[C@H](CC(C)C)NC(=O)[C@H](C)NC(=O)[C@H](CC(N)=O)NC(=O)[C@H](CC(C)C)NC(=O)CN)C(C)C)[C@@H](C)CC)C(=O)N[C@@H](CCCCN)C(=O)N[C@@H](CCCCN)C(=O)N[C@H](C(=O)N[C@@H](CC(N)=O)C(=O)N[C@@H](CC(N)=O)C(=O)N[C@@H](Cc1c[nH]cn1)C(=O)N[C@H](C(=O)N[C@@H](CCC(N)=O)C(N)=O)C(C)C)[C@@H](C)CC [Pse-11G/18L-K] | 0 | 0 | 0.7 | 1.3 | 6.6 | 18.0% | 100 | 100 | 100 | 100 | 100 | 91.3 | – | – | – | –
3 | CC[C@H](C)[C@H](NC(=O)[C@H](CC(C)C)NC(=O)[C@H](CCCCN)NC(=O)[C@@H](NC(=O)[C@H](C)NC(=O)[C@H](CCC(=O)O)NC(=O)[C@H](Cc1c[nH]cn1)NC(=O)[C@@H](NC(=O)[C@H](CCCCN)NC(=O)[C@H](CCC(N)=O)NC(=O)[C@H](Cc1ccccc1)NC(=O)[C@@H](NC(=O)[C@H](CCCCN)NC(=O)[C@H](CCCCN)NC(=O)[C@H](CC(C)C)NC(=O)[C@H](C)NC(=O)[C@H](CC(N)=O)NC(=O)[C@@H](N)CC(C)C)C(C)C)[C@@H](C)CC)[C@@H](C)CC)C(N)=O [Pse-T2] | 0 | 0 | 0 | 0 | 4.7 | 15.2% | 100 | 100 | 100 | 100 | 95.3 | 79.4 | higher membrane disrupting ability than Pseudin-2 | higher membrane disrupting ability than Pseudin-2 | showed binding to DNA | Membrane disrupting ability (Escherichia coli [3]; 1 hour at 37° C., PI staining): 92%; Membrane disrupting ability (Staphylococcus aureus [4]; 1 hour at 37° C., PI staining): 96%; Membrane damage by SEM (Escherichia coli [5]): rougher than the cells treated with Pseudin-2; Membrane damage by SEM (Staphylococcus aureus [6]): higher damage and disruption of cell membrane; Bacteria count of Pseudomonas aeruginosa 4891 in lesion, less than the PBS treatment ([7]; on Day 3, homogenate of lesion tissues): at least 80%; Bacteria count of Pseudomonas aeruginosa 4891 in lesion, less than the PBS treatment ([7]; on Day 6, homogenate of lesion tissues): at least 95%; mRNA expression of IL-1β [8]: suppressed; mRNA expression of IL-6 [9]: suppressed; mRNA expression of TNF-α [10]: suppressed
4 | CC[C@H](C)[C@H](NC(=O)[C@H](CCCCN)NC(=O)[C@H](CCCCN)NC(=O)[C@@H](NC(=O)[C@H](C)NC(=O)[C@H](CCC(=O)O)NC(=O)[C@H](Cc1c[nH]cn1)NC(=O)[C@@H](NC(=O)[C@H](CCCCN)NC(=O)[C@H](CCC(N)=O)NC(=O)[C@H](Cc1ccccc1)NC(=O)[C@@H](NC(=O)[C@H](CCCCN)NC(=O)[C@H](CCCCN)NC(=O)[C@H](CC(C)C)NC(=O)[C@H](C)NC(=O)[C@H](CC(N)=O)NC(=O)[C@@H](N)CC(C)C)C(C)C)[C@@H](C)CC)[C@@H](C)CC)C(N)=O [Pse-T4] | 0 | 0 | 0 | 0 | 0 | 1.3% | 100 | 100 | 100 | 100 | 100 | 96.5 | higher membrane disrupting ability than Pseudin-2 | higher membrane disrupting ability than Pseudin-2 | showed binding to DNA | –

Source: patent US12371459B2, “Antimicrobial peptide derived from Pseudin-2 peptide and uses thereof” (INDUSTRY-ACADEMIC COOPERATION FOUNDATION, CHOSUN UNIVERSITY, priority 2019, dated 2025)
